This is an account of results in patent US20200392251A1 (University of California, published 2020).

Assay [1] concerns the target T1, N-terminal domain of tissue inhibitor of metalloproteinases 2 (nTIMP-2) (UniProt P16035 27-153, limits assumed).
T1 construct: domain: N-terminal domain; Periplasmically expressed and purified as reported elsewhere
Description: BLItz bio-layer interferometry; printed as 'Affinity ... (nM)'. Background: Biolayer interferometry detects binding as a change in optical thickness at a sensor tip.

Assay [2] deals with T2, N-terminal domain of tissue inhibitor of metalloproteinases 1 (nTIMP-1) (UniProt P01033 24-149, limits assumed).
T2 construct: domain: N-terminal domain; Periplasmically expressed and purified as reported elsewhere
The assay is described as above.

B1: human MMP-12 catalytic domain mutant D4 (cdMMP-12 D4) (enzyme)
chain: GPVWRKHDITYRIQNYTPDMHREDVDKAIEKAFQVWSNVTPLKFSKINTGEADILIVFARGEHGDFHPFDGKGGILAHAFGPGSGIGGDAHFDEDEFWTTSSGGTNLFLVAVHEIGHSLGLGHSSDPRAVMFPTYKYVDTNTFRLSQDDIRGIQSLYGHHHHHH
notes: PROSS-designed expression-optimised mutant; Cytoplasmically expressed in E. coli, purified on Ni-NTA; biotinylated for ELISA/BLI; also called cdMMP-12 mutant D4; modified D4
For the molecule B1, the figures for the Kd in assay [1] and in assay [2] were 290 nM and 500 nM, respectively.
